Assay results taken from patent US8198268B2, “Tianeptine sulfate salt forms and methods of making and using the same” (Janssen Biotech, Inc., priority 2008, dated 2012).
In brackets after ≈: the same amount, converted by molar mass. Several values for one entry are separate records, joined by “and”; a condition that tells them apart may be missing. Equal entries are not always repeated. Structures can show the parent of a compound that is named as a salt. Where two headings read alike, the source gives them in different places.

Columns and labels:
[1] = about 25 degrees C.
physchem = settings: water, thermodynamic from solid

Compound	Equilibrium Form (pH 1)	Solubility (pH 1) [µg/mL]	Equilibrium Form (pH 2)	Final pH (pH 2)	Solubility (pH 2) [µg/mL]	Equilibrium Form (pH 3)	Solubility (pH 3) [µg/mL]	Equilibrium Form (pH 5)	Final pH (pH 5)	Solubility (pH 5) [µg/mL]	Equilibrium Form (pH 6)	Final pH (pH 6)	Solubility (pH 6) [µg/mL]	Equilibrium Form (pH 7)	Final pH (pH 7)	Solubility (pH 7) [µg/mL]	Equilibrium Form (pH 8)	Final pH (pH 8)	Solubility (pH 8) [µg/mL]	Solubility (pH 10) [µg/mL]	other results
CN1c2ccccc2C(NCCCCCCC(=O)O)c2ccc(Cl)cc2S1(=O)=O (stereo not drawn) [tianeptine Form II, 7-[(3-chloro-6,11-dihydro-6-methyldibenzo[c,f][1,2]thiazepin-11-yl)amino]heptanoic acid S,S-dioxide]	HCl	1360 (≈ 3110 µM)	form II	2.47	2660 (≈ 6090 µM)	form II	830 (≈ 1900 µM)	form II	5.06	40 (≈ 91.5 µM)	form II	6.01	40 (≈ 91.5 µM)	form II	7.08	60 (≈ 137 µM)	form II	7.98	400 (≈ 915 µM)	9720 (≈ 22200 µM)	Final pH (pH 1): 1.17; Final pH (pH 3): 3.08; Equilibrium Form (pH 10): form II; Final pH (pH 10): 9.61
CN1c2ccccc2C(NCCCCCCC(=O)O)c2ccc(Cl)cc2S1(=O)=O (stereo not drawn) [tianeptine sodium]	–	–	form I & II	9.250 and 9.17	–	–	–	form I & II	8.45	1500	form II	7.75	270	form II	9.40	39530	form II	8.92	85430	43560	relative humidity at which deliquescence began [1]: about 60 % relative humidity; water absorbed by mass at 90% relative humidity ([1]; 90% relative humidity): about 38%; Final pH (pH 10): 10.20
CN1c2ccccc2C(NCCCCCCC(=O)O)c2ccc(Cl)cc2S1(=O)=O (stereo not drawn) [tianeptine hydrochloride, 7-[(3-chloro-6,11-dihydro-6-methyldibenzo[c,f][1,2]thiazepin-11-yl)amino]heptanoic acid S,S-dioxide hydrochloride]	HCl	3150	HCl	–	7470	form II	3810	form II	–	60	form II	–	30	form II	–	20	form II	–	340	2750	water absorbed by mass over the entire humidity range ([1]; about 0 to about 90 percent relative humidity): less than 2.5%; relative humidity range in which stable (DVS analysis) ([1]; about 0 to about 90 percent relative humidity, hydrochloride): at least 90 % relative humidity; Final pH (pH 1, hydrochloride): 1.4; Final pH (pH 2, hydrochloride): 2.2; Final pH (pH 3, hydrochloride): 2.5; Final pH (pH 5, hydrochloride): 4.4; Final pH (pH 6, hydrochloride): 5.3; Final pH (pH 7, hydrochloride): 6.4; Final pH (pH 8, hydrochloride): 7.4; Equilibrium Form (pH 10): form II; Final pH (pH 10, hydrochloride): 8.7
CN1c2ccccc2C(NCCCCCCC(=O)O)c2ccc(Cl)cc2S1(=O)=O (stereo not drawn) [tianeptine hemisulfate monohydrate, 7-[(3-chloro-6,11-dihydro-6-methyldibenzo[c,f][1,2]thiazepin-11-yl)amino]heptanoic acid S,S-dioxide hemisulfate monohydrate]	sulfate	330	sulfate	–	200	sulfate	250	form II	–	120	–	–	100	–	–	100	–	–	360	3610	Solubility (physchem): < 1000 µg/mL; hygroscopicity (DVS analysis) ([1]; about 10% to about 90% relative humidity): non-hygroscopic; Final pH (pH 1, hemisulfate monohydrate): 1.4; Final pH (pH 2, hemisulfate monohydrate): 2.4; Final pH (pH 3, hemisulfate monohydrate): 3.0; Final pH (pH 5, hemisulfate monohydrate): 4.7; Final pH (pH 6, hemisulfate monohydrate): 5.5; Final pH (pH 7, hemisulfate monohydrate): 6.6; Final pH (pH 8, hemisulfate monohydrate): 7.6; Final pH (pH 10, hemisulfate monohydrate): 8.7
